Binding data for 8 molecules are collected here from article PMC5766253.

Amino acid sequences for entries named in this document (tags omitted). Residues count along the entry.
UniProt P10185, residues 20-224: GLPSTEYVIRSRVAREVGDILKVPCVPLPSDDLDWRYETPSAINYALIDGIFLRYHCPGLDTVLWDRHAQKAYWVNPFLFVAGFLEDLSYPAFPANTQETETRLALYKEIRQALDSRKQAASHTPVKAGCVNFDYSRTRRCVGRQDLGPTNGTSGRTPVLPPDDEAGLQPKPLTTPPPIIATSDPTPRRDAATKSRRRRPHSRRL
UniProt P06477, residues 19-838: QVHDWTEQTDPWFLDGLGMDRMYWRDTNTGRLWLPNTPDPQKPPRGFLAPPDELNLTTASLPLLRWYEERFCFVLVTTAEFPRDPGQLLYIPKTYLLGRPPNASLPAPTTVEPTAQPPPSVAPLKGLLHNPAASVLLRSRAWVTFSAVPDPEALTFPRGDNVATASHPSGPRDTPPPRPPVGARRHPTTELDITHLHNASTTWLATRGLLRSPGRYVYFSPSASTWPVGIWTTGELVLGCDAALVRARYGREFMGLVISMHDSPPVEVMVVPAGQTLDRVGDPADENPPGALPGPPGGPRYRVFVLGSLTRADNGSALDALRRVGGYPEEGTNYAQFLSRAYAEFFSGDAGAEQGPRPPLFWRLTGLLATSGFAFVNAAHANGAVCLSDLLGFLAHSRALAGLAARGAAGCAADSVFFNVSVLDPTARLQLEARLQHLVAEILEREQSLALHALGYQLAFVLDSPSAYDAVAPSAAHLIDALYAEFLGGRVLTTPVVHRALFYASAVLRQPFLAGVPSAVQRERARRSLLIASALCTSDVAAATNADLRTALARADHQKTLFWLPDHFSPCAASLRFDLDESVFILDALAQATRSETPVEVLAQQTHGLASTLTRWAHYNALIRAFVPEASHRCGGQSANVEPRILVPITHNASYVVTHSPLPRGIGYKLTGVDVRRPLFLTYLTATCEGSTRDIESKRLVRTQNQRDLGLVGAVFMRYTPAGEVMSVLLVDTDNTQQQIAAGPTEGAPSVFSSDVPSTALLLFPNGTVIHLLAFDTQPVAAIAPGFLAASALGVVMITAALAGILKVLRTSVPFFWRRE
UniProt Q69467, residues 26-393: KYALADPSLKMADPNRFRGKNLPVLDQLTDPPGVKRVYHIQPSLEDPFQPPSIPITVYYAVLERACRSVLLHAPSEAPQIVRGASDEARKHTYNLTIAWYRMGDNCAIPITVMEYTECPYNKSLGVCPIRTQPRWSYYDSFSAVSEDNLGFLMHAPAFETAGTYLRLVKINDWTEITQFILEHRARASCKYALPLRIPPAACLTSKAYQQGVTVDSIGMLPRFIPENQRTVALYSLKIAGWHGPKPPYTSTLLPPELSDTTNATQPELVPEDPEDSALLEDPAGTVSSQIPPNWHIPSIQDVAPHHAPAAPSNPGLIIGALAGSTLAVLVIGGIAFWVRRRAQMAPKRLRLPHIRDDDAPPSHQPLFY
UniProt Q69091, residues 26-394: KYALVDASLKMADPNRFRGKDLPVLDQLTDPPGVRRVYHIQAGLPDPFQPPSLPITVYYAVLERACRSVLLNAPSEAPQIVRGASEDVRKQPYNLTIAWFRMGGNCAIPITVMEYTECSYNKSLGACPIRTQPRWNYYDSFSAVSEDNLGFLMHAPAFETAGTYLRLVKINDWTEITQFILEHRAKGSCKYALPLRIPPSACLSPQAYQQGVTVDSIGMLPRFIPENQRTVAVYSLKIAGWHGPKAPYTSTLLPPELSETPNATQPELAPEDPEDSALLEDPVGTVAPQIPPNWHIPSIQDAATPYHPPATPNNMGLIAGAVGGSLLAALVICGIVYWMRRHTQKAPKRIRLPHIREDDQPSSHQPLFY

Results are given in words; binding and its absence hold for the method and conditions named. Binding seen in cells or lysates may run through a third protein. Some entries that bind do so weakly or less than the wild type.

Test [1] has as its target T1, phospholipid scramblase-1 (PLSCR1) (human (endogenous in CaSki and HaCAT)) (UniProt O15162).
T1 sequence: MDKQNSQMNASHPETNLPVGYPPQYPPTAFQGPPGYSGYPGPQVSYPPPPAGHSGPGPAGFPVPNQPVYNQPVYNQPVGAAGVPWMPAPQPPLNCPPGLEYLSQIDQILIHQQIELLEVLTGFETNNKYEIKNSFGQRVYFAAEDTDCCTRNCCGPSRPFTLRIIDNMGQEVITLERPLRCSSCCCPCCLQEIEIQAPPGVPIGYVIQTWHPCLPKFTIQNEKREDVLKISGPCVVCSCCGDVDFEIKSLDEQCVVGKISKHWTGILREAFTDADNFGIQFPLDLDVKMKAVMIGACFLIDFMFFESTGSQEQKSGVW
Nature of the test: proximity ligation; CaSki cells synchronously infected with HSV-2(G) or HSV-1(KOS), fixed 15 min after the shift to 37°C; murine serotype-common mAbs to gD, gB, gL or gH with rabbit polyclonal anti-PLSCR1; Duolink probes.

Test [2] deals with T1, phospholipid scramblase-1 (PLSCR1) (human (endogenous in CaSki and HaCAT)). Nature of the test: proximity ligation; CaSki cells synchronously infected with gH- or gL-deletion viruses of HSV-2(G) or HSV-1(KOS) (non-complemented ΔgH, ΔgL; complemented ΔgL-2+/-), fixed 15 min after the shift to 37°C; mAb to gL or gH with rabbit anti-PLSCR1.
For test [3], the target named is T2, HSV-2 glycoprotein L (gL-2) of HSV-2(G) (HSV-2 (strain G)) (UniProt P28278).
T2 sequence: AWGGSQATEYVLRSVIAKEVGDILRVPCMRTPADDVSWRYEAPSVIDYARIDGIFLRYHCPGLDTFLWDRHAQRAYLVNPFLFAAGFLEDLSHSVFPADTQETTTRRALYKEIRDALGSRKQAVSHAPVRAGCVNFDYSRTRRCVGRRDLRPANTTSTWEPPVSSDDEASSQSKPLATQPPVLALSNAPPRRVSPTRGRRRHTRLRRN
Nature of the test: co-IP; CaSki cells, serum-starved, synchronously infected with HSV-2(G) (5 pfu/cell), lysed in RIPA buffer 15 min after the temperature shift; IP with mouse anti-gL, mouse anti-gH or rabbit anti-PLSCR1, protein A-agarose; supernatant, pellet and lysate blotted.

The target of test [4] is T3, HSV-2 glycoprotein H (gH-2) of HSV-2(G) (HSV-2 (strain G)) (UniProt P89445).
T3 sequence: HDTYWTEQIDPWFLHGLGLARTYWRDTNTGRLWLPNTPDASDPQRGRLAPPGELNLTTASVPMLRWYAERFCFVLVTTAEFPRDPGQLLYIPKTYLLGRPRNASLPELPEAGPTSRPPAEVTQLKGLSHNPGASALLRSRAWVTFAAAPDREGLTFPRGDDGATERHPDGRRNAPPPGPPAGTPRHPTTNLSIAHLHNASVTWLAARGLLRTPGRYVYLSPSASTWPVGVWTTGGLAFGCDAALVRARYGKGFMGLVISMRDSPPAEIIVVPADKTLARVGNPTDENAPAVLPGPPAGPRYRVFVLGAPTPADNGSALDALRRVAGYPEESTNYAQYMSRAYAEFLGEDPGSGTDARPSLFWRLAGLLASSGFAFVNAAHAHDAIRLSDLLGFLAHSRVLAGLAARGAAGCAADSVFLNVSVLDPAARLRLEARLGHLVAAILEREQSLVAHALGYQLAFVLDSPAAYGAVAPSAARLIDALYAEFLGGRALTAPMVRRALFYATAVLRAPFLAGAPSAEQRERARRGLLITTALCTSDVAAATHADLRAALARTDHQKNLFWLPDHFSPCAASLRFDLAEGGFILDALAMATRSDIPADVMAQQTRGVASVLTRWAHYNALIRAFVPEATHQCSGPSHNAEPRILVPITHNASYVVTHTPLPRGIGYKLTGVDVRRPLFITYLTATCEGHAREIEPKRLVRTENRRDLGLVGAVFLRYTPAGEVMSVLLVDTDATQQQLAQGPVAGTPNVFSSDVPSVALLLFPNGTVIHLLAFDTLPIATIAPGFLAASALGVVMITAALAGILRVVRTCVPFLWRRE
The description is as above.

Test [5] concerns the target T1, phospholipid scramblase-1 (PLSCR1) (human (endogenous in CaSki and HaCAT)). Described as above.

On to “HSV-1 glycoprotein L (gL-1) of HSV-1(KOS) (from UniProt P10185 20-224)”, for which the binding entry in test [1] and in test [2] was “binds” each time.

With “HSV-1 glycoprotein H (gH-1) of HSV-1(KOS) (from UniProt P06477 19-838)”, the binding result in test [1] and in test [2] was “no binding” in each case.

For the molecule “HSV-1 glycoprotein B of HSV-1(KOS) (from UniProt P06437 31-904)”, the binding entry in test [1] is “no binding”.

Take “HSV-2 glycoprotein D (gD-2) of HSV-2(G) (from UniProt Q69467 26-393)”: the binding entry in test [1] is reported as “no binding”.

For “HSV-1 glycoprotein D of HSV-1(KOS) (from UniProt Q69091 26-394)”, the binding result in test [1] is “no binding”.

B1: phospholipid scramblase-1 (PLSCR1) (protein, UniProt O15162 1-318)
chain: MDKQNSQMNASHPETNLPVGYPPQYPPTAFQGPPGYSGYPGPQVSYPPPPAGHSGPGPAGFPVPNQPVYNQPVYNQPVGAAGVPWMPAPQPPLNCPPGLEYLSQIDQILIHQQIELLEVLTGFETNNKYEIKNSFGQRVYFAAEDTDCCTRNCCGPSRPFTLRIIDNMGQEVITLERPLRCSSCCCPCCLQEIEIQAPPGVPIGYVIQTWHPCLPKFTIQNEKREDVLKISGPCVVCSCCGDVDFEIKSLDEQCVVGKISKHWTGILREAFTDADNFGIQFPLDLDVKMKAVMIGACFLIDFMFFESTGSQEQKSGVW
With B1, the values for the binding result in test [3] and in test [4] were “binds” and “no binding”, respectively.

B2: HSV-2 glycoprotein H (gH-2) of HSV-2(G) (protein, UniProt P89445 19-838)
chain: HDTYWTEQIDPWFLHGLGLARTYWRDTNTGRLWLPNTPDASDPQRGRLAPPGELNLTTASVPMLRWYAERFCFVLVTTAEFPRDPGQLLYIPKTYLLGRPRNASLPELPEAGPTSRPPAEVTQLKGLSHNPGASALLRSRAWVTFAAAPDREGLTFPRGDDGATERHPDGRRNAPPPGPPAGTPRHPTTNLSIAHLHNASVTWLAARGLLRTPGRYVYLSPSASTWPVGVWTTGGLAFGCDAALVRARYGKGFMGLVISMRDSPPAEIIVVPADKTLARVGNPTDENAPAVLPGPPAGPRYRVFVLGAPTPADNGSALDALRRVAGYPEESTNYAQYMSRAYAEFLGEDPGSGTDARPSLFWRLAGLLASSGFAFVNAAHAHDAIRLSDLLGFLAHSRVLAGLAARGAAGCAADSVFLNVSVLDPAARLRLEARLGHLVAAILEREQSLVAHALGYQLAFVLDSPAAYGAVAPSAARLIDALYAEFLGGRALTAPMVRRALFYATAVLRAPFLAGAPSAEQRERARRGLLITTALCTSDVAAATHADLRAALARTDHQKNLFWLPDHFSPCAASLRFDLAEGGFILDALAMATRSDIPADVMAQQTRGVASVLTRWAHYNALIRAFVPEATHQCSGPSHNAEPRILVPITHNASYVVTHTPLPRGIGYKLTGVDVRRPLFITYLTATCEGHAREIEPKRLVRTENRRDLGLVGAVFLRYTPAGEVMSVLLVDTDATQQQLAQGPVAGTPNVFSSDVPSVALLLFPNGTVIHLLAFDTLPIATIAPGFLAASALGVVMITAALAGILRVVRTCVPFLWRRE
On to B2, for which the binding entry in test [5], in test [1] and in test [2] was “no binding” in each case.

B3: HSV-2 glycoprotein L (gL-2) of HSV-2(G) (protein, UniProt P28278 17-224)
chain: AWGGSQATEYVLRSVIAKEVGDILRVPCMRTPADDVSWRYEAPSVIDYARIDGIFLRYHCPGLDTFLWDRHAQRAYLVNPFLFAAGFLEDLSHSVFPADTQETTTRRALYKEIRDALGSRKQAVSHAPVRAGCVNFDYSRTRRCVGRRDLRPANTTSTWEPPVSSDDEASSQSKPLATQPPVLALSNAPPRRVSPTRGRRRHTRLRRN
On to B3, for which the binding entry in test [5], in test [1] and in test [2] was “binds” each time.
